The source gives no read counts; variants with many changes may rest on few reads.
B1: CPEB3 Ribozyme (parent)
chain: UAACAGGGGGCCACAGCAGAAGCGUUCACGUCGCAGCCCCUGUCAGAUUCUGGUGAAUCUGCGAAUUCUGCUGUAUAUCUC

Variants of: B1
Experiment: self-cleavage, relative activity (ratio to wild type); higher = more cleavage; in vitro, sequencing
In short: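 Barcoded CPEB3 ribozyme mutants, produced by rounds of error-prone PCR, self-cleaved while being transcribed with T7 RNA polymerase for 5 hours at 37°C and during a subsequent 15 min DNase I step before EDTA was added. Sequencing of template-switched cDNA on Illumina gave cleaved and total reads, and DNA sequencing assigned barcodes to variants. Each variant's relative activity is its cleaved/total read fraction divided by the unmutated ribozyme's fraction, averaged across three batches. A variant needed a minimum of 5 reads.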
U54G U60C U67A gave a self-cleavage of 0.2.
For U54G U66A U72A A77G U78C, the self-cleavage was 0.18.
Variant U54G U66C G70A has a self-cleavage of 0.34.
For U54G U66C U69A, the self-cleavage was 0.15.
In the case of U54G U66C U74A, the self-cleavage is reported as 0.4.
Variant G55A A56C A57G has a self-cleavage of 0.41.
With G55A U66A U67G the self-cleavage was 0.28.
Work on G55C A56G U69C yielded a self-cleavage of 0.27.
G55U U60C U78C showed a self-cleavage of 0.24.
For A56C A65G U66C A77G, the self-cleavage was 0.12.
A56C A65U U74A gave a self-cleavage of 0.13.
A56C U60A U69C gave a self-cleavage of 0.17.
Variant A56C U60A U78G has a self-cleavage of 0.16.
Work on A56C U74C U76C yielded a self-cleavage of 1.16.
A56G A57G G73A U74A gave a self-cleavage of 0.87.
In the case of A56G A57G U60A C71U, the self-cleavage is reported as 0.29.
A56G A57G U69C U72A A77C gave a self-cleavage of 0.12.
A56G A57U A77G gave a self-cleavage of 0.26.
Variant A56G A64C U72C U78C has a self-cleavage of 0.23.
Variant A56G A77U U78C has a self-cleavage of 0.85.
Variant A56G C68A U72C has a self-cleavage of 0.27.
Work on A56G C68A U74A yielded a self-cleavage of 0.41.
A56G C68G U72C showed a self-cleavage of 0.27.
A56G C71G U78C showed a self-cleavage of 0.19.
Variant A56G G73A U80A has a self-cleavage of 1.27.
Work on A56G U58C C81G yielded a self-cleavage of 0.38.
Work on A56G U58C U67A U74C U78C yielded a self-cleavage of 0.3.
Variant A56G U58G U69A U80C has a self-cleavage of 0.13.
A56G U60A U66C gave a self-cleavage of 0.21.
A56G U60C U67A U72A showed a self-cleavage of 0.19.
In the case of A56G U60C U72A U78C C81A, the self-cleavage is reported as 0.38.
In the case of A56G U60G U67C, the self-cleavage is reported as 0.14.
Work on A56G U66C C68U yielded a self-cleavage of 0.12.
In the case of A56G U67G A75U U78A, the self-cleavage is reported as 0.26.
A56G U69C U80C showed a self-cleavage of 0.45.
A56G U76C U78A gave a self-cleavage of 1.14.
Variant A56U A57G A64U U67C has a self-cleavage of 0.27.
For A56U A57G U78C, the self-cleavage was 0.45.
In the case of A56U A57U U72A, the self-cleavage is reported as 0.3.
With A56U A64G U66A the self-cleavage was 0.18.
Variant A56U A64G U67C U69C has a self-cleavage of 0.23.
A56U A64U A65G gave a self-cleavage of 0.18.
With A56U A65G U66C the self-cleavage was 0.18.
For A56U A65G U72G, the self-cleavage was 0.22.
Variant A56U A75G A77U has a self-cleavage of 0.58.
In the case of A56U C62U A75U, the self-cleavage is reported as 0.28.
For A56U C68A U69G, the self-cleavage was 0.12.
Work on A56U C71U U76A yielded a self-cleavage of 0.32.
In the case of A56U G63A U76C, the self-cleavage is reported as 0.6.
With A56U G63U U67C U72C the self-cleavage was 0.19.
With A56U U60G U66C U80C the self-cleavage was 0.15.
For A56U U66A U69C U72C C79A, the self-cleavage was 0.32.
Work on A56U U67C U72A yielded a self-cleavage of 0.18.
With A56U U69A U72G U76A the self-cleavage was 0.34.
In the case of A56U U72C A75U, the self-cleavage is reported as 0.57.
For A56U U72C U74A, the self-cleavage was 0.97.
In the case of A56U U76A C79A, the self-cleavage is reported as 0.88.
In the case of A57G G61U U76C, the self-cleavage is reported as 0.26.
Variant A57G U58A C62U U72C has a self-cleavage of 0.3.
Work on A57G U58A U69C yielded a self-cleavage of 0.15.
A57G U58C U76A showed a self-cleavage of 0.34.
A57G U58C U76G gave a self-cleavage of 0.23.
A57G U58C U78A showed a self-cleavage of 0.51.
For A57G U66C U67A, the self-cleavage was 0.23.
A57G U69A U72A showed a self-cleavage of 0.26.
A57G U72C U74C showed a self-cleavage of 1.35.
With A57U U67C U72C the self-cleavage was 0.2.
Work on A57U U69C A77G U78A yielded a self-cleavage of 0.63.
For A57U U74A U78C, the self-cleavage was 1.08.
Variant A57U U78C U80C has a self-cleavage of 0.44.
U58A A64G U72A showed a self-cleavage of 0.3.
Work on U58A A64U U80C yielded a self-cleavage of 0.46.
In the case of U58A A65U U69A, the self-cleavage is reported as 0.43.
U58A G63A U67C gave a self-cleavage of 0.27.
U58A U66C U69A showed a self-cleavage of 0.14.
With U58C A64G U74A U78C the self-cleavage was 0.28.
Work on U58C A64U A77G yielded a self-cleavage of 0.17.
Variant U58C A64U U69C has a self-cleavage of 0.23.
U58C C62G A65U A77G showed a self-cleavage of 0.19.
U58C U60C A64G U67A gave a self-cleavage of 0.15.
With U58C U60G U78C the self-cleavage was 0.22.
Variant U58C U66A U78G U80C has a self-cleavage of 0.42.
For U58C U66C U80C, the self-cleavage was 0.15.
Work on U58C U67A U72C yielded a self-cleavage of 0.21.
